PubChem BioAssay AID686979 (National Center for Advancing Translational Sciences (NCATS), 2013)
Several values for one entry are separate records, joined by “and”; a condition that tells them apart may be missing. Equal entries are not always repeated. Hit rate of the full screen: of about 420,000 compounds, about 50,000 (12%) were called active. This list was built around the results that the source calls inconclusive (neither active nor inactive); the mix of calls is not that of the screen. The call rests on the fitted dose curve; in most records, active means well fitted inhibition curve with a large enough effect; inconclusive means small, poorly fitted or top-dose-only effect; inactive means flat fitted curve, though single readings scatter. Potencies of inconclusive entries are left out as doubtful fits. More than one record can exist for a structure, and the calls need not agree.
On the % scale 0 is the no-effect control and ±100 the full control effect; potency means the concentration at half of the fitted maximal effect; tags describe the fitted curve by direction and shape.

Assay: qHTS for Inhibitors of human tyrosyl-DNA phosphodiesterase 1 (TDP1): qHTS in cells in presence of CPT; further: nearly all actives have a fitted effect of over 55% in size
Settings: chicken DT40 Tdp1-/-;hTDP1 cells + 20 nM CPT, ATP luminescence, 48 h; activity change, negative = growth inhibition: at 46.2 µM (top of the series)
In short: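 Chicken DT40 Tdp1-/- cells stably complemented with human TDP1 were seeded at 400 cells/well in medium containing 20 nM camptothecin, exposed to pin-transferred compounds, and grown at 37 °C for at least 48 hr. Viability was read as ATP luminescence.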
In the case of `Cc1cc(NC(=O)COC(=O)CCS(=O)(=O)c2cc(Cl)ccc2Cl)no1`, the Potency is reported as inconclusive [inhibitor, partial curve].
For `COc1ccc(OC)c(NC(=O)CCCSc2ccccc2)c1`, the “activity change, negative = growth inhibition” value was inactive: -13.4%.
For `COc1ccc(C2N=C(c3ccccc3)C(C)(C)N2O)cc1OC` (stereo not given), the Potency was inconclusive [inhibitor, single point].
In the case of `COc1ccc(OC)c(NS(=O)(=O)c2ccc3c(c2)n(C)c(=O)n3C)c1`, the “activity change, negative = growth inhibition” value is reported as inactive: -3.9%.
With `CCOC(=O)C1CCCN(C(=O)Cn2ncc3c4ccccc4n(Cc4ccc(F)cc4)c3c2=O)C1` (stereo not given) the Potency was active: 23.1 µM.
With `CCC(=O)N1CCc2cc(S(=O)(=O)NC(C(=O)NC3CCCc4ccccc43)C(C)C)ccc21` (stereo not given) the “activity change, negative = growth inhibition” value was inactive: -24.6%.
With `O=C(CN1CCN(c2ccccn2)CC1)Nc1ccccc1C(=O)Nc1ccccc1` the Potency was inconclusive [inhibitor, single point].
With `O=C(NC1CC2CCCC(C1)N2Cc1ccc(F)cc1)c1ccc(F)cc1` (stereo not given) the “activity change, negative = growth inhibition” value was inactive: -22.7%.
In the case of `O=C(Nc1ccc2c(c1)C(=O)N(c1ccccc1)C2=O)c1cccs1`, the “activity change, negative = growth inhibition” value is reported as inactive: -3.49%.
For `Cc1ccc(C)c(-c2ccc(=O)n(Cc3ccc(F)cc3Cl)n2)c1`, the Potency was “inactive and active: 18.4 µM”.
With `Cc1ccc(S(=O)(=O)c2c(N)n(CCCN(C)C)c3nc4ccccc4nc23)cc1` the Potency was inconclusive [inhibitor, single point].
In the case of `Cc1ccccc1S(=O)(=O)Oc1ccc2ccc(O)cc2c1`, the Potency is reported as inconclusive [inhibitor, single point].
For `CCN(CC)c1ccc(C(=O)Nc2ccc3nc(N(CC)CC)cc(C)c3c2)cc1`, the Potency was inconclusive [inhibitor, single point].
In the case of `S=C(NC1CCCCCC1)NC1CCCC1`, the Potency is reported as inconclusive [inhibitor, single point].
For `CN(Cc1ccccc1)C(=O)Cn1c(=O)c2cccn2c2ccc(F)cc21`, the Potency was active: 23.1 µM.
With `CCOC(=O)CCC(=O)N(CCN(C(=O)CCC(=O)OCC)c1ccccc1)c1ccccc1` the “activity change, negative = growth inhibition” value was inactive: 0.643%.
For `CC1Sc2ccc(S(=O)(=O)CCC(=O)NC3CCCC(C)C3C)cc2NC1=O` (stereo not given), the Potency was active: 20.6 µM.
With `COCCn1nnnc1C1(N(Cc2cc3cc(C)ccc3[nH]c2=O)CC2CCCO2)CCN(C)CC1` (stereo not given) the Potency was inconclusive [inhibitor, single point].
With `Cc1ccc(S(=O)(=O)N(CC(=O)NCc2ccncc2)Cc2ccc(F)cc2)cc1` the Potency was inconclusive [inhibitor, single point].
With `COc1c(Cl)cnn(-c2ccccc2)c1=O` the “activity change, negative = growth inhibition” value was inactive: 7.45%.
For `CS(C)(=O)=O`, the “activity change, negative = growth inhibition” value was inactive: 9.85%.
In the case of `O=C1C(=O)N(CCN2CCOCC2)C(c2ccc(Cl)c(Cl)c2)/C1=C(/O)c1ccc2c(c1)OCO2` (stereo not given), the Potency is reported as inconclusive [inhibitor, single point].
With `O=C(CCCCCn1c(=S)[nH]c2cc3c(cc2c1=O)OCO3)NCCc1ccccc1` the Potency was inconclusive [inhibitor, single point].
In the case of `O=S(=O)(/N=C(/Nc1cccc2ccccc12)c1ccccc1)c1cccs1`, the “activity change, negative = growth inhibition” value is reported as inactive: -37.3%.
In the case of `CCc1ccc2ncc(C(=O)c3ccccc3)c(N3CCOCC3)c2c1`, the Potency is reported as inconclusive [inhibitor, partial curve, poor fit].
In the case of `Cc1ccc2[nH]c(CSc3nnc(NC(=O)COc4ccccc4Cl)s3)cc(=O)c2c1`, the Potency is reported as inconclusive [inhibitor, single point].
In the case of `O=C(CNC1CCCCC1)NN=C(c1ccccc1)c1ccccc1`, the Potency is reported as inconclusive [inhibitor, single point].
In the case of `CCOC(=O)c1cnc2c(cnn2C)c1Oc1ccc(OC)cc1`, the Potency is reported as inconclusive [inhibitor, single point].
In the case of `Oc1c(C(Nc2cccnc2)c2ccc(C(F)(F)F)cc2)ccc2cccnc12` (stereo not given), the Potency is reported as inconclusive [inhibitor, single point].
With `Cc1ccc(CNC(=O)c2sc3ncnc(N(C)C4CCCCC4)c3c2C)cc1` the Potency was inconclusive [inhibitor, single point].
For `COc1ccc(CNc2ncnc3ccc(-c4ccoc4)cc23)c(OC)c1`, the Potency was inconclusive [inhibitor, single point].
With `COc1cccc(/C=N/NC(=O)CNC(=O)c2ccncc2)c1O` the Potency was inconclusive [inhibitor, single point].
In the case of `COc1cccc(CN(C)C(=O)c2ccccc2Sc2ccccc2C#N)c1`, the Potency is reported as inconclusive [inhibitor, single point].
With `CCCNC(=O)C1(C)CCN(C(=O)c2oc3ccccc3c2C)C1` (stereo not given) the “activity change, negative = growth inhibition” value was inactive: -8.34%.
In the case of `CCc1ccc(NC(=O)C2CCCN(S(=O)(=O)c3cccc4cccnc34)C2)cc1` (stereo not given), the Potency is reported as active: 18.4 µM.
With `CC(=O)Nc1cc(-c2cccc(F)c2)cn2c(-c3ccc(F)cc3)cnc12` the Potency was inconclusive [inhibitor, single point].
In the case of `CC(OC(=O)C1CSC2(c3ccc(F)cc3)CCC(=O)N12)C(=O)NC(N)=O` (stereo not given), the “activity change, negative = growth inhibition” value is reported as inactive: 0.568%.
For `CN(Cc1ccccc1)c1ccc(C(CC(N)=O)NC(=O)Cc2ccc(Br)cc2)cc1[N+](=O)[O-]` (stereo not given), the Potency was inconclusive [inhibitor, single point].
In the case of `COc1ccccc1NC(=O)N(CCN1CCCC1)Cc1cc2cc(C)ccc2[nH]c1=O`, the Potency is reported as inconclusive [inhibitor, partial curve, poor fit].
For `CCCCOC(=O)CSc1nc2c(cc1C#N)C(=O)CC(C)(C)C2`, the “activity change, negative = growth inhibition” value was inactive: -17.8%.
For `CC(=O)c1c(O)cc2n(c1=O)-c1ccc(Cl)cc1C2(C)C`, the Potency was inconclusive [inhibitor, single point].
In the case of `COc1ccc(-c2cnnc(N/N=C/c3ccc(OC)c(OC)c3)n2)cc1`, the Potency is reported as inconclusive [inhibitor, single point].
With `COc1ccc(CC(=O)NCCc2ccc3c(c2)OCO3)cc1OC` the “activity change, negative = growth inhibition” value was inactive: 5.6%.
With `COc1ccc(NC(=O)COc2ccccc2C(=O)Nc2ccccc2)cc1` the Potency was inconclusive [inhibitor, single point].
With `O=C(Nc1ccccc1N1CCCC1)C1CCN(S(=O)(=O)c2ccc(F)cc2)CC1` the Potency was inconclusive [inhibitor, single point].
In the case of `COc1cc(OC)c(OC)cc1/C=C/C(=O)OCC(=O)Nc1c(C)n(C)n(-c2ccccc2)c1=O`, the Potency is reported as inconclusive [inhibitor, partial curve, poor fit].
In the case of `Cc1ccc(NC(=O)N2CCN(C)CC2)cc1NC(=O)N1CCN(C)CC1`, the “activity change, negative = growth inhibition” value is reported as inactive: 0.942%.
In the case of `CC1=CCC2C(=O)N(c3cccc(C(=O)Nc4ccccc4Cl)c3)C(=O)C2C1` (stereo not given), the “activity change, negative = growth inhibition” value is reported as inactive: -12.2%.
In the case of `CC1CCCN(C(=O)Cn2c(-c3nonc3N)nc3ccccc32)C1` (stereo not given), the Potency is reported as inconclusive [inhibitor, single point].
In the case of `Nc1nc(Nc2ccccc2)nc(NCc2ccccc2)c1[N+](=O)[O-]`, the Potency is reported as inconclusive [inhibitor, single point].
In the case of `CCN1CCN(C(=O)c2ccc3c(=O)n(CCc4ccccc4)c(=O)[nH]c3c2)CC1`, the Potency is reported as inconclusive [inhibitor, full curve].
For `Cc1cc(C)c2c(n1)nn1c(NCCCN3CCOCC3)cc(C)nc21`, the “activity change, negative = growth inhibition” value was inactive: -26.9%.
In the case of `CCC1CCCCN1C(=O)Cn1c(C(=O)OC)cc2sc(Cl)cc21` (stereo not given), the Potency is reported as inconclusive [inhibitor, single point].
With `CS(=O)(=O)N(CC(=O)N/N=C/c1cc([N+](=O)[O-])ccc1Cl)c1ccccc1` the Potency was inconclusive [inhibitor, single point].
For `COc1ccc(OCCOc2ccc(S(=O)(=O)N3CCCC3)cc2C(N)=O)cc1`, the Potency was inconclusive [inhibitor, single point].
In the case of `CCOc1ccccc1C(=O)N1CCN(c2ccc(C(F)(F)F)cn2)CC1`, the Potency is reported as inconclusive [inhibitor, single point].
With `CCc1ccc2c(c1)[C@H]1OCC[C@H]1[C@@H](c1cccs1)N2` the Potency was active: 13 µM.
With `COc1cc2c(cc1OC)-c1nnc(-c3cccs3)n1C(C)(C)C2` the Potency was inconclusive [inhibitor, single point].
With `COc1ccccc1CNC(=O)CN(C)Cc1ccc(SC)cc1` the Potency was active: 16.4 µM.
For `C=C1CCN([C@H](C(=O)NCc2ccccc2)C(C)C)S(=O)(=O)c2ccccc21`, the Potency was inconclusive [inhibitor, single point].
With `Cc1noc(C)c1CSc1nnc2n(-c3ccccc3)c(=O)c3ccccc3n12` the Potency was inconclusive [inhibitor, single point].
With `COc1ccccc1-c1cc(N)n(S(=O)(=O)c2cccc3nsnc23)n1` the Potency was inconclusive [inhibitor, partial curve, poor fit].
With `O=C(COc1ccc(Cl)cc1)NCc1nnc(SCC(=O)N2CCCCCC2)o1` the Potency was inconclusive [inhibitor, single point].
In the case of `COc1ccc(C(=O)Nc2nc3ccccc3c(=O)[nH]2)cc1`, the “activity change, negative = growth inhibition” value is reported as inactive: -22.9%.
For `O=C(NCCC(=O)N1CCN(c2ccccn2)CC1)c1ccc(Br)cc1`, the “activity change, negative = growth inhibition” value was inactive: -8.33%.
For `COc1ccc(Cl)cc1NC(=S)NCc1cccnc1`, the “activity change, negative = growth inhibition” value was inactive: -6.82%.
With `N#Cc1cccc(NC(=O)CNc2cccc(S(=O)(=O)N3CCCC3)c2)c1` the Potency was inconclusive [inhibitor, partial curve].
With `Cc1cc(NCCCN2CCOCC2)n2c(nc3ccccc32)c1C#N` the “activity change, negative = growth inhibition” value was inactive: -2.27%.
In the case of `Oc1c(C(c2ccccn2)N2CCCCC2)cc(Cl)c2cccnc12` (stereo not given), the Potency is reported as active: 18.4 µM.
In the case of `O=C(NCC(=O)N(c1ccc2c(c1)OCO2)C(C(=O)NC1CCCC1)c1ccncc1)c1ccco1` (stereo not given), the Potency is reported as active: 23.1 µM.
